In all, about 33,000 sequences were measured (“E-score (-0.5 to 0.5)”: median about -0.035, highest 2% from about 0.35 on). The list shows a part of the results.
target: T1, Pdr3 (UniProt P33200); assay: PBM E-score (8-mer binding enrichment) (E-score (-0.5 to 0.5)); higher = stronger / more preferred TF binding; most listed sequences are background and not binding sites; settings: protein concentration: 200 nM; construct: GST-full length
T1 sequence: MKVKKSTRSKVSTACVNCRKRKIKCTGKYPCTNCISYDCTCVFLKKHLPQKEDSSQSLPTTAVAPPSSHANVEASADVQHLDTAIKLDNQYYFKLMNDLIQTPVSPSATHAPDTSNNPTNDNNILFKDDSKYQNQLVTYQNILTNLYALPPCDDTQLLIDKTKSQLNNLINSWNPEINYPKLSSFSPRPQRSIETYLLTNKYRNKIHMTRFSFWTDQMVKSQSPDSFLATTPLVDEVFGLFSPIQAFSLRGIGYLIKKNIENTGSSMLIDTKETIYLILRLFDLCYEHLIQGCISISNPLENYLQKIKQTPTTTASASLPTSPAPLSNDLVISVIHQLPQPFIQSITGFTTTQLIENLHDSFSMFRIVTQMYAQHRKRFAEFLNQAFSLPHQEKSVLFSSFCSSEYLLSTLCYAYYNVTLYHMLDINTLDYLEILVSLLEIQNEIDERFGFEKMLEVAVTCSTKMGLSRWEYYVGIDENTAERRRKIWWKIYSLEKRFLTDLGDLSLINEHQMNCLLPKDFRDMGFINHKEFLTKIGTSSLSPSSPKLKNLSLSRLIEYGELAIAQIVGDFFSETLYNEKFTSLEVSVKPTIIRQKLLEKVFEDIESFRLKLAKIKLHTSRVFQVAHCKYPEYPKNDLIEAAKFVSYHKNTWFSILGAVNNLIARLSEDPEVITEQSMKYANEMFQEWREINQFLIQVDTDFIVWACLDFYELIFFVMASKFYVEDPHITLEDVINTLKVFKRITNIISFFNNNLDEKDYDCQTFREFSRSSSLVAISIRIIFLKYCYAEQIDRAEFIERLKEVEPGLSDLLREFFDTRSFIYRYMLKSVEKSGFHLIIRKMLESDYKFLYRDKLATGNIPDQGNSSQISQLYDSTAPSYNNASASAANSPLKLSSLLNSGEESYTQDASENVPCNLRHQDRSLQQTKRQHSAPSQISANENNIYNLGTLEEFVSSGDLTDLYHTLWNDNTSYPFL
How it was run: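 Yeast transcription factors carrying a GST tag, as full-length proteins or DNA-binding domains, were produced by PURExpress in vitro transcription/translation. About 100-200 nM protein was applied to universal all-10-mer Agilent arrays, double-stranded by primer extension on fresh or once-stripped slides. Bound protein was detected with fluorescent anti-GST, and scans were normalised with masliner. The Universal PBM Analysis Suite gave each ungapped eight-base word, pooled with its reverse complement, an E-score, a modified Wilcoxon-Mann-Whitney statistic.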

Sequence	PBM E-score
CTCCTAAG	-0.205
GGGTGATA	0.0215
AGGGGCCG	-0.113
ATGCATTG	-0.0958
CGGGATTC	0.382
AACGCTAA	-0.287
CTTTGGTC	0.116
AGTTCTCC	0.0212
CTAAATCC	0.245
GCTTGTAA	-0.201
ATCCATGG	0.0773
CCTTGGTA	0.0284
AGGTAGGC	-0.0914
AGCACTAA	-0.0921
CACGTCGA	0.0487
CATTGAGG	-0.178
GGATCAAA	0.0676
AAAGACGA	-0.246
GGATCGCC	0.155
GACAGGTA	-0.183
AGGGAGAG	-0.217
CACAGCAC	-0.0318
ACAAGTAC	-0.045
GGCTACAC	-0.271
AATTTTCG	-0.0602

Sequence	PBM E-score
AGGACAAG	-0.135
CGTATATA	-0.146
CTCACAAG	-0.0841
GAGATCAA	0.0191
AAGCTGAT	0.165
CCTATAGA	-0.208
CCCCGAAG	0.144
ATGTTTCA	-0.175
GAAGGGAC	-0.12
AAGACCAT	-0.164
CCGGGACC	0.413
ATGACCAT	-0.0204
CACGAAGG	-0.102
CTGCATGA	-0.226
AACGACGT	-0.159
CCAACGCG	0.0835
AACGCCAT	-0.0238
GCAAACGA	-0.0555
ACGCGAGA	-0.144
CTATCTTC	-0.0566
GAGCAAAC	-0.038
GAAGCGGA	0.318
AGGACTAT	-0.188
CCCGGCGA	0.296
CCCCTAAC	-0.143

Sequence	PBM E-score
CATCACAG	-0.0891
CCCCCTAC	-0.275
CCAATGAA	-0.124
CGTGTATC	-0.0288
ACCACTGA	-0.236
ATATAGTC	0.111
ATGAAATC	-0.0808
GGAGTACC	-0.0755
ACACCCGA	0.203
GCTGAACC	0.0584
AAGATTCC	0.283
AGTATATG	0.0798
CATTGACA	-0.155
CCCTCGTA	-0.0134
CGCCCGGC	0.293
AGGGCGTG	-0.0787
GGAACCGA	0.406
GAAATCGA	0.18
CCCTTCGA	-0.0988
GAGGTTGC	-0.0384
AGAACTCC	0.0347
GTGGGGTA	0.21
ACTCGTTG	-0.242
TGTTCGAA	-0.0866
AACATGAA	-0.113

Sequence	PBM E-score
CTCGTTTC	-0.109
CGAGGCAC	-0.0225
CCGTAATA	0.107
CGAGAGAA	-0.0217
GGAATTAC	0.224
CGCTCTCA	-0.094
AATAGGAT	0.0785
TACGTTGA	-0.214
AGAATCCT	-0.142
TAGTGTCA	0.0536
AGCTTCAA	-0.258
TCCCGGAA	0.463
AAGACAGC	-0.129
ATTTTAAC	-0.101
ATTCACCC	0.182
AACCCCCT	-0.347
CGTTATCA	-0.0262
CTTATGAA	-0.132
TACAGTAA	-0.301
GTTCGAAA	0.102
AAGTTTTA	-0.0119
ATAGGTTC	-0.0357
AAGCAATC	-0.0187
AAAGTAGC	-0.0793
ACTCTGTA	-0.165

Sequence	PBM E-score
ATTACATG	0.027
ATGACGGG	0.213
CATGGAAG	0.203
ATGACTAA	-0.214
CCTGGGGA	-0.292
CGGTGTGA	0.165
GAATGCGC	0.231
GTAGACAC	-0.0101
ACCGATGC	0.045
CAAGAGCG	-0.0589
CATTCAGG	-0.0624
AATGTGGA	0.00947
AGAGCGGC	0.168
ATATGATC	0.118
ATTGCCAA	-0.0932
GTGAAGCA	-0.0976
GCCAAAGA	-0.148
ACAGGCAA	-0.104
CATAGGGC	-0.118
GACGGGTA	0.0374
CCGGGGCA	0.235
CCATTCAC	0.014
AAAACCCT	-0.252
AGCCCCAT	-0.0914
CCATGGGA	0.0759

Sequence	PBM E-score
CATGAGAA	-0.0502
CCTGGGTA	-0.239
CTTCCGTC	0.403
ACCGTATG	-0.0796
ACCAAGAT	-0.0515
AGTGAAGG	-0.221
CCACCAAA	-0.116
CCATCTAG	-0.223
CGTTTACA	-0.141
GATACTGA	0.0486
GCTGCTAC	-0.212
CCCATTAC	-0.138
GGGCCGAC	0.0222
ACTCGGCG	0.248
CTTGCTAA	-0.266
CACACCGA	0.0166
GGTTGACA	-0.0746
ACATAACT	-0.0475
CAGGTAAA	-0.0305
ACCAACCA	-0.0183
CAGGGACC	-0.246
CGTCGTTC	0.196
CATGCGAG	-0.0214
GCTGAGCC	0.00413
AAGAAAGG	-0.194

Sequence	PBM E-score
AGCTTCAG	-0.177
AGAAAATG	-0.0679
ACAGGGAT	-0.107
ATCGAAGC	-0.0438
ACCTACGA	-0.187
CCAGTCGC	-0.0148
AGTGCCGC	0.18
CAGGCCTA	-0.0696
CCTCAGAA	-0.326
CACTGATA	-0.275
AGAGTTCG	-0.00345
GTGACGTA	-0.0979
AGTTCCAG	-0.0101
CGTAAGGA	-0.267
ATCGATGA	0.00783
CCTCTCCC	-0.0732
CGGTAACG	0.123
GGCGAGCC	0.125
CGGCCTAA	0.0622
CTAGCGAA	-0.246
AGATGAAA	0.00513
CATCGATC	0.00807
